{"source": "PubChem BioAssay AID504706", "about": "(National Center for Advancing Translational Sciences (NCATS), 2011)", "note": "The campaign covered roughly 320,000 compounds. About 200 (0.062%) were called active. This list was built around the results that the source calls inconclusive (neither active nor inactive); the mix of calls is not that of the screen. Calls come from the whole dose curve; as a rule, active = well fitted activation curve with a large enough effect; inconclusive = small, poorly fitted or top-dose-only effect; inactive = no such curve, though single readings can be large or run the other way. No potency is given beside an inconclusive call; the fits are too rough. Potency is the fitted concentration of half-maximal effect; tags give direction and shape of the fitted curve.", "data": [{"assay": "qHTS assay for re-activators of p53 using a Luc reporter; note: nearly all actives have a fitted effect of over 45% in size; for activity change, positive = activation: % of control where 0% means no effect", "settings": "H1299 p53-A138V BP100-luciferase reporter, luminescence, 24 h; series mostly up to 92.2 µM; activity change, positive = activation: at the top concentration", "summary_of_the_method": "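H1299 (p53-null), stable ts p53-A138V + BP100-Luc; 1000 cells/well, Opti-MEM/10% FBS; cpd 4 pt, 1:5; 24 h, 37 deg C, 5% CO2; detection reagent 10 min RT; luminescence.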", "values": [{"smiles": "O=c1cc(-c2ccccc2)[nH]n1-c1nc2ccccc2[nH]1", "Potency": "inconclusive [activator, partial curve, poor fit]"}, {"smiles": "CC1CCN(C(=S)c2cn(Cc3ccccc3F)c3ccccc23)CC1", "Potency": "inconclusive [activator, single point]"}, {"smiles": "COc1ccccc1-n1nnnc1S(=O)(=O)Cc1ccc(Cl)cc1", "Potency": "inconclusive [activator, single point]"}, {"smiles": "O=C(OCC(=O)N1CCOCC1)c1ccc2ccccc2c1", "Potency": "inconclusive [activator, partial curve, poor fit]"}, {"smiles": "OCCN1CN=C(Nc2nc3ccccc3o2)NC1", "Potency": "inconclusive [activator, single point]"}, {"smiles": "CCCSc1nc(N)c2c3c(sc2n1)CN(C)CC3", "Potency": "inconclusive [activator, single point]"}, {"smiles": "COc1ccc(C2NC(=S)NC3=C2CCCC3=C2SCCS2)cc1", "note": "(stereo unspecified)", "Potency": "inconclusive [activator, full curve, poor fit]"}, {"smiles": "CCn1c(SCC(=O)c2[nH]c(C)c(C(C)=O)c2C)nnc1-c1cccs1", "activity change, positive = activation": "inactive: 4.78%"}, {"smiles": "COc1ccc(C(=O)NOCc2ccccc2)cc1", "activity change, positive = activation": "inactive: 2.25%"}, {"smiles": "COc1ccc(C(=O)O/N=C(\\N)c2ccc(OC)c(OC)c2)cc1", "Potency": "inconclusive [activator, full curve]"}, {"smiles": "COC(=O)CSc1nc2ccc(C)cc2[nH]1", "activity change, positive = activation": "inactive: 0.125%"}, {"smiles": "CN(CCC1CCOCC1)C(=O)C1CCC(=O)N(CCc2ccccc2)C1", "note": "(stereo unspecified)", "activity change, positive = activation": "inactive: -2.34%"}, {"smiles": "Cc1ccc(NC(=O)c2ccc3nsnc3c2)c(C)c1", "Potency": "inconclusive [activator, partial curve, poor fit]"}, {"smiles": "CC1CCCCN1C(=O)C1CC(c2ccc(F)cc2)=NO1", "note": "(stereo unspecified)", "Potency": "inconclusive [activator, partial curve, poor fit]"}, {"smiles": "O=C(CCN1C(=O)/C(=C\\c2ccccc2)SC1=S)N1CCCCC1", "Potency": "inconclusive [activator, full curve, poor fit]"}, {"smiles": "CC(C)OC(=O)c1ccc(NC(=O)c2ccco2)cc1", "Potency": "inconclusive [activator, partial curve, poor fit]"}, {"smiles": "Cc1ccc(-n2nnnc2SCc2nc3sc(C)c(C)c3c(=O)[nH]2)cc1", "activity change, positive = activation": "inactive: -0.406%"}, {"smiles": "CCCCC1(O)CC(C(F)(F)F)=NN1C(=O)COc1ccccc1", "note": "(stereo unspecified)", "activity change, positive = activation": "inactive: 5.74%"}, {"smiles": "Cc1ccc(S(=O)(=O)NNC(=O)C(=O)NNc2ccccn2)cc1", "activity change, positive = activation": "inactive: 24.9%"}, {"smiles": "CCOC(=O)C1=CN(Cc2ccc(Br)cc2)S(=O)(=O)NC1C", "note": "(stereo unspecified)", "activity change, positive = activation": "inactive: 7.34%"}, {"smiles": "CN1CCN(C2=C(Cl)C(=O)N(Cc3ccccc3)C2=O)CC1", "Potency": "active: 20 µM"}]}]}
